# Measured values from publication PMC4336329 (PLoS ONE, 2015).
# The whole screen tested about 310,000 compounds, of which about 2,200 (0.71%) showed an effect of 50% or more. Effects have a minus sign here. This is one part of the list.
# Target: human ether-à-go-go-related gene (hERG) potassium channel (human, UniProt Q12809)
# Assay: primary screen, population patch clamp on CHO cells stably expressing hERG
# Sequence of human ether-à-go-go-related gene (hERG) potassium channel (Q12809 whole entry, looked up): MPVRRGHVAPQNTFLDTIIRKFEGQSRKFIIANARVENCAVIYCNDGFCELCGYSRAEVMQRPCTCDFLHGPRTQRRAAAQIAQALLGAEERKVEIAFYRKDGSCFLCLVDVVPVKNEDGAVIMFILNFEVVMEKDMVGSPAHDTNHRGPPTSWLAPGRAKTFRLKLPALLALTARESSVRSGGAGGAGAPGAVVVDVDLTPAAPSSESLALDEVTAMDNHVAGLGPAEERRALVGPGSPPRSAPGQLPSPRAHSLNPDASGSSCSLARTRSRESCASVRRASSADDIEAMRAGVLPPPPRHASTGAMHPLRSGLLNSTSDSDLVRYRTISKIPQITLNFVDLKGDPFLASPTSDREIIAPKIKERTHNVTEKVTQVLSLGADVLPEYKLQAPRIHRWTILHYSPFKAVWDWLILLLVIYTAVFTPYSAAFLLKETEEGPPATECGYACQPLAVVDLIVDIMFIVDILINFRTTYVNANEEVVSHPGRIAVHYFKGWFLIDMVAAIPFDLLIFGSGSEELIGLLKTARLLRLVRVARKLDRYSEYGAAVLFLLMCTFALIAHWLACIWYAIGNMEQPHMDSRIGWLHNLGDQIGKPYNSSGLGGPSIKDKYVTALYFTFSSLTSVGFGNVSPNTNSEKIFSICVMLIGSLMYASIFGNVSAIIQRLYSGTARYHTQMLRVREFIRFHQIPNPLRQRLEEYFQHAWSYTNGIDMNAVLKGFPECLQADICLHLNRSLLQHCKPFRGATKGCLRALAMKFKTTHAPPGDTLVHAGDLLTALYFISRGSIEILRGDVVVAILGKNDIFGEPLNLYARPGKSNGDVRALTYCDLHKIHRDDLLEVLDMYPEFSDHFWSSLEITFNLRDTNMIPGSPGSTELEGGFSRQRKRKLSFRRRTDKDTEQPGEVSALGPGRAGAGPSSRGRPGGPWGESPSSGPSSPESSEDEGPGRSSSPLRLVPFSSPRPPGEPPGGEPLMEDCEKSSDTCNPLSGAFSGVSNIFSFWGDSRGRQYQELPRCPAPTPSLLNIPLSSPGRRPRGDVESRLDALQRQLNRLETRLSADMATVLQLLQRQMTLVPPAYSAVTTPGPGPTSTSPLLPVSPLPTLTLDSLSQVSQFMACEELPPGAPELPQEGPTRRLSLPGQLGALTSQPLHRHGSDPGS
row,SMILES,"hERG current change (%, negative = inhibition) at 1uM"
1,CCN(CC)S(=O)(=O)c1ccc(NC(=O)Cn2cnc3ccccc3c2=O)cc1,10.3%
2,Cn1c(N/N=C/c2cccs2)cc(=O)n(C)c1=O,12.4%
3,COC(=O)c1ccc(NC(=O)C(OC)c2ccccc2)cc1 (stereo not drawn),13.3%
4,COc1ccc(N(C(=O)Cc2cccs2)C(C(=O)NC2CCCCC2)c2cccn2C)cc1 (stereo not drawn),9.18%
5,COc1ccc(NC(=O)c2ccccc2N2C(=O)C3C4C=CC(C5CC45)C3C2=O)c(OC)c1 (stereo not drawn),17.1%
6,O=S(=O)(Nc1cccc(-n2cnnn2)c1)c1ccccc1C(F)(F)F,19.3%
7,COc1ccc(NC(=O)N2CCCC(C(=O)NCCc3ccccc3)C2)cc1 (stereo not drawn),14.5%
8,Cc1cccc(NC(=O)CCc2ccc(C)o2)c1,7.2%
9,CC(C)C/C=C1\CCc2c([nH]c3ccccc23)C1=O,18.6%
10,Cc1ccc(S(=O)(=O)N2CCCCC2CCNC(=O)C(=O)NCc2ccco2)cc1 (stereo not drawn),1.57%
11,O=C(O)c1cc(N=Cc2c(O)c3ccccc3oc2=O)ccc1O,0.406%
12,CCCCn1c(NC(=O)c2ccc(Br)o2)c(S(=O)(=O)c2ccccc2)c2nc3ccccc3nc21,3.4%
13,C/C(=N\OC(=O)c1ccccc1)c1c(C)nc2cc(C)ccn12,4.35%
14,Cc1ccc(SCc2c(C(=O)N/N=C/c3ccc4c(c3)OCO4)nnn2-c2nonc2N)cc1,8.33%
15,Cc1nc(SCC(=O)c2ccc(Cl)cc2)c([N+](=O)[O-])[nH]1,-2.06%
16,Cc1ccnc(NS(=O)(=O)c2ccc(NC(=O)C3C4C=CC(C4)C3C(=O)O)cc2)n1 (stereo not drawn),21.1%
17,CC(c1ccccc1)N1C(=O)NC(NC(=O)C(C)(C)C)(C(F)(F)F)C1=O (stereo not drawn),11%
18,Cn1ncc(Br)c1C(=O)NC1CCCCC1,11.8%
19,Cc1c(Cl)c(-c2n[nH]c(=S)n2-c2ccccc2)nn1C,11.8%
20,C=CCOC(=O)/C(=C/c1cccnc1)NC(=O)c1ccccc1,-2.45%
21,CN1CCN(c2ccc(Cl)cc2NC(=O)c2ccc([N+](=O)[O-])cc2)CC1,4.11%
22,O=[N+]([O-])c1ccc(-c2cn(-c3ccccc3F)c(=S)[nH]2)cc1,-11.1%
23,CCC(C)(C#CCN1CCCCC1)OCCC#N (stereo not drawn),1.22%
24,O=C(/C=C/c1ccco1)NC(=S)Nc1ccccc1N1CCOCC1,2.72%
